The source of these data is patent US20180334496A1 (KODIAK SCIENCES, published 2018).

This experiment addresses T1, complement Factor B (UniProt P00751 26-764).
T1 construct: also called CFB; FB
T1 sequence (looked up): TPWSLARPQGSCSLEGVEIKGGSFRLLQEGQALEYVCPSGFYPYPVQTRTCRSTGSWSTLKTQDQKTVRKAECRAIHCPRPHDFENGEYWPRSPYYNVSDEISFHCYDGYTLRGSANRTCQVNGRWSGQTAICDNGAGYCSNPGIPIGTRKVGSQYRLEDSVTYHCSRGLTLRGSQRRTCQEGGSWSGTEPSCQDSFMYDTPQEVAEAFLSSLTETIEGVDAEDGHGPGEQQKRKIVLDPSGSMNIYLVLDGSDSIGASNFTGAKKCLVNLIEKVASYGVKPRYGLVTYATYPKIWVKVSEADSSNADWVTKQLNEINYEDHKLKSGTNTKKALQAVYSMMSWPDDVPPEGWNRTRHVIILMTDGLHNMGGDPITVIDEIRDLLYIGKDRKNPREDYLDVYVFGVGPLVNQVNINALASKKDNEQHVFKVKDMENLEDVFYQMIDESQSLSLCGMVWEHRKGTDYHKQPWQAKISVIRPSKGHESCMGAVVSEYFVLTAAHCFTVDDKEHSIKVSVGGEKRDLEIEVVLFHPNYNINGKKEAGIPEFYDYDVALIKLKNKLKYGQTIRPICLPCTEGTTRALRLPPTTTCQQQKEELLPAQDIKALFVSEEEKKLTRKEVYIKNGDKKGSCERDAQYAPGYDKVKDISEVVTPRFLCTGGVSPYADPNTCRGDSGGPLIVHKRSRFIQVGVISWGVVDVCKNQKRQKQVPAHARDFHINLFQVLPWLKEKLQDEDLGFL
The experiment is described as follows: SPR complex assembly assay.

B1: recombinant human CFDS183A (enzyme)
chain: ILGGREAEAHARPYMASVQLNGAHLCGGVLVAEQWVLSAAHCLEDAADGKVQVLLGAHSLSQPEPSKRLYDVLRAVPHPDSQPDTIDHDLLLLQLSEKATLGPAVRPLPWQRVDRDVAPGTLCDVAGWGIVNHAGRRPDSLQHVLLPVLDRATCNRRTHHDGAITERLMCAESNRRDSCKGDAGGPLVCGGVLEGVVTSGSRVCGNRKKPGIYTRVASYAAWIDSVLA
notes: also called catalytically dead mutant of CFD
As to B1, the binding result is given as “binds”.
